# Measurements from PubChem BioAssay AID588342 (National Center for Advancing Translational Sciences (NCATS), 2011).
# In all, about 360,000 compounds went through this assay and about 25,000 (6.9%) were called active. Inconclusive means that the source gave no clear call. Such entries were picked first, then a sample of the others. Calls come from the whole dose curve; as a rule, active = well fitted inhibition curve with a large enough effect; inconclusive = small, poorly fitted or top-dose-only effect; inactive = flat fitted curve, though single readings scatter. Potencies of inconclusive entries are doubtful fits and often do not repeat.
# Biological target: Luciferin 4-monooxygenase (Photinus pyralis) (UniProt P08659)
# Experiment: qHTS profiling assay for firefly luciferase inhibitor/activator using purifed enzyme and Km concentrations of substrates (counterscreen for miR-21 project); note: nearly all actives have a fitted effect of over 55% in size
# Conditions: purified FLuc, luminescence inhibition; series mostly up to 57.5 µM
# Summary of the method: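 Biochemical qHTS of compounds, final roughly 60 µM downward over six points, against 10 nM purified firefly luciferase using Km concentrations of substrates (10 uM D-luciferin, 10 uM ATP) in Tris acetate pH 7.5 buffer; luminescence output.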
# Potency is the fitted concentration of half-maximal effect; tags give direction and shape of the fitted curve.
# Chain of UniProt P08659 (P08659 whole entry, looked up): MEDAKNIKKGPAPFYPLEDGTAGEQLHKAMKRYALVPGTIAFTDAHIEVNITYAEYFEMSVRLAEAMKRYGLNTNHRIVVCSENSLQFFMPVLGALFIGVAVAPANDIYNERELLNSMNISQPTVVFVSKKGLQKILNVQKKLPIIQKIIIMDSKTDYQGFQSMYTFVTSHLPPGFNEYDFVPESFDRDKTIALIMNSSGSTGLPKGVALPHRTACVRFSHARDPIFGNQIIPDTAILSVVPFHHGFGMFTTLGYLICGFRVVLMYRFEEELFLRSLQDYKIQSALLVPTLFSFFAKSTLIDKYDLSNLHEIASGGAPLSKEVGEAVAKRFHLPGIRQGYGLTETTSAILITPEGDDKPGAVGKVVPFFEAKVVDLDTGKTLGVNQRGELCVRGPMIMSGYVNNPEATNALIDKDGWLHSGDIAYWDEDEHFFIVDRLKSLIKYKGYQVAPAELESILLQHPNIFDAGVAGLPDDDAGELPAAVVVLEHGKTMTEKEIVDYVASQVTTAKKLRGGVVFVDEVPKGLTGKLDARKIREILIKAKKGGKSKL
row,SMILES,Potency
1,Cc1[nH]nc(N)c1N=Nc1ccc(Br)cc1,"inconclusive: 30.1 µM [inhibitor, partial curve, poor fit]"
2,Cc1cccc(NC(=S)NC(=O)CCc2ccccc2)c1,"inconclusive: 26.9 µM [inhibitor, single point]"
3,O=C(NCc1ccccc1)c1ccc2c(c1)nc1n2CCCCC1,active: 19 µM
4,N#Cc1ccc(-c2cccnc2)nc1SCC(=O)c1ccccc1,"inconclusive: 7.57 µM [inhibitor, partial curve, poor fit]"
5,Cc1ccc(NC(=O)c2c(C(F)(F)F)nn(C)c2SCc2cccc(C(F)(F)F)c2)cc1C,"inconclusive: 23.9 µM [inhibitor, single point]"
6,COc1ccc(-n2c(NN)nc3sc4c(c3c2=O)CCCC4)cc1,"inconclusive: 10.7 µM [inhibitor, partial curve, poor fit]"
7,Cc1ccc(S(=O)(=O)N(C)C)cc1NC(=O)COC(=O)c1ccc2c(c1)OCCO2,"inconclusive: 19 µM [inhibitor, partial curve]"
8,Cc1cccc(NC(=O)CSc2nccn2Cc2ccco2)c1C,"inconclusive: 37.9 µM [inhibitor, single point]"
9,CCCCc1ccc(NC(=O)c2ccc3c(c2)CCN3S(=O)(=O)c2ccccc2)cc1,inactive
10,CCCCOc1ccc(C(=O)NCC(=O)N2CCN(Cc3ccc4c(c3)OCO4)CC2)cc1,inactive
11,O=C(Nc1ccc(Cl)cc1)Nc1cnccn1,"inconclusive: 26.9 µM [inhibitor, single point]"
12,N#CCC(=O)c1ccccc1Oc1ccc(Cl)cc1,"inconclusive: 26.9 µM [inhibitor, partial curve, poor fit]"
13,O=C(/C=C/c1ccco1)c1ccc(O)cc1,active: 13.5 µM
14,Cc1nn(-c2ccccc2)c(Cl)c1/C=N/NC(=O)c1ccc(NS(=O)(=O)c2cccs2)cc1,active: 0.849 µM
15,Nc1c(-c2cccc(Cl)c2)cnn1-c1cccc(C(F)(F)F)c1,"inconclusive: 23.9 µM [inhibitor, single point]"
16,Cc1nc(NC(=O)CSc2nnnn2C)sc1C,"inconclusive: 16.9 µM [inhibitor, partial curve]"
17,O=C(Oc1ccc(-c2cnc3ccccc3n2)cc1)c1ccco1,active: 0.269 µM
18,Clc1ccc2[nH]cc(-c3nnnn3-c3ccccc3)c2c1,active: 23.9 µM
19,CCOC(=O)c1cnc2ccc(OCC)cc2c1Nc1cc(Cl)c(OC)cc1OC,"inconclusive: 2.69 µM [inhibitor, full curve]"
20,CN(c1ccccc1)S(=O)(=O)c1ccc(C(=O)Nc2nnc(C3=COCCO3)o2)cc1,"inconclusive: 26.9 µM [inhibitor, partial curve, poor fit]"
21,Clc1ccccc1N=C1NN=C(c2cccs2)CS1,active: 12 µM
22,CCN1CCCC1CNC(=O)c1cc2cc(OC)c(OC)cc2[nH]1 (centres undefined),inactive
23,CC(=O)Nc1ccc(C(=O)/C=C/c2ccco2)cc1,active: 9.53 µM
24,COc1ccc(OC)c(S(=O)(=O)Nc2ccc(Oc3ccccc3)cc2)c1,inactive
25,Cc1ccc(-c2nnc(SCC(=O)NC3CC3)o2)cc1,"inconclusive: 23.9 µM [inhibitor, partial curve, poor fit]"

row,SMILES,Potency
1,CC(C)c1nc2ccc(NC(=O)C3CCCCC3)cc2[nH]1,"inconclusive: 23.9 µM [inhibitor, single point]"
2,Cc1ccc(C)c(N2CCN(CCCNC(=O)c3nnc(Cc4ccc(F)cc4Cl)o3)CC2)c1,inactive
3,CC(=O)c1ccc(S(=O)(=O)N(Cc2cc3cc4c(cc3[nH]c2=O)OCCO4)CC2CCCO2)cc1 (centres undefined),"inconclusive: 26.9 µM [inhibitor, single point]"
4,CC1CCCN(C2=C(NS(=O)(=O)c3ccc(Br)cc3)C(=O)c3ccccc3C2=O)C1 (centres undefined),"inconclusive: 37.9 µM [inhibitor, partial curve, poor fit]"
5,CC(=O)Nc1cccc(-c2csc(N)n2)c1,inactive
6,COc1ccc(C/C(O)=C(\C#N)c2nc3ccccc3s2)cc1,"inconclusive: 26.9 µM [inhibitor, single point]"
7,N/C(Cn1cncn1)=N\OC(=O)c1ccc(Cl)cc1Cl,"inconclusive: 37.9 µM [inhibitor, partial curve, poor fit]"
8,COc1ccc(Nc2nc(CC(C)=O)ns2)cc1,"inconclusive: 23.9 µM [inhibitor, single point]"
9,CCCOc1ccc(NC(=O)C2CC(=O)N/C(=N/N=C(C)/C=C/c3ccc(N(C)C)cc3)S2)cc1 (centres undefined),active: 2.39 µM
10,COc1c(F)c(F)c(C(=O)O)c(Nc2cccc(C)c2)c1F,"inconclusive: 30.1 µM [inhibitor, single point]"
11,CCCN(CC(=O)Nc1ccccc1C)C(=O)CCl,inactive
12,O=C(NCC(=O)N1CCCCCC1)c1ccc(Cl)cc1,"inconclusive: 37.9 µM [inhibitor, partial curve, poor fit]"
13,Cc1ccc2nc(SCC(=O)NC3CC3)[nH]c2c1,"inconclusive: 26.9 µM [inhibitor, single point]"
14,Cc1ccc(NC(=O)c2cncc(Br)c2)nc1,"inconclusive: 21.3 µM [inhibitor, partial curve]"
15,Cc1ccc(N2CCN(C(=S)c3ccc(-c4ccccc4[N+](=O)[O-])o3)CC2)cc1,"inconclusive: 30.1 µM [inhibitor, partial curve, poor fit]"
16,COc1ccccc1C1CCN(c2ccc([N+](=O)[O-])c(OC)c2)CC1,"inconclusive: 19 µM [inhibitor, partial curve, poor fit]"
17,CC(C)c1ccc(NC(=O)C2=CC=CN3CCS(=O)(=O)N=C23)cc1,"inconclusive: 3.01 µM [inhibitor, partial curve]"
18,O=C(O)c1ccc2ncsc2c1,"inconclusive: 23.9 µM [inhibitor, single point]"
19,O=C(NCc1ccccc1Cl)c1ccc(NC(=O)N2CCSc3ncccc32)cc1,inactive
20,O=C(CSc1nc(-c2ccc(F)cc2)nc2c1Cc1ccccc1O2)Nc1ccc(C(=O)O)cc1,"inconclusive: 9.53 µM [inhibitor, partial curve]"
21,Oc1[nH]c2ccccc2c1C=Nc1ccc2c(c1)OCO2,active: 7.57 µM
22,CCOC(=O)C1=C(C)C/C(=N\NC(=O)c2ccccc2O)CC1,active: 7.57 µM
23,CCOC(=O)N1CCC(NC(=O)C2CCN(C(=O)c3cc4sccc4n3CC)CC2)CC1,inactive
24,COc1ccc2[nH]c(=O)c(CN(Cc3cccnc3)C(=S)NCC3CCCO3)cc2c1 (centres undefined),inactive
25,CCOc1ccccc1-n1nnnc1SCC(=O)NC(=O)Nc1ccc2c(c1)OCCO2,inactive

row,SMILES,Potency
1,NC(=O)C1CCN(c2nc(-c3cc4ccccc4o3)cs2)CC1,active: 10.7 µM
2,CCOC(=O)Cc1csc(NC(=O)c2cc(C)c(C)s2)n1,active: 8.49 µM
3,O=C(Nc1ccc2nc(-c3cccnc3)[nH]c2c1)c1ccccc1F,active: 15.1 µM
4,COc1cccc(NC(=O)CN(C)C(=O)CSCc2nc3scc(-c4cccs4)c3c(=O)[nH]2)c1,inactive
5,COc1ccc(OCC(=O)N2CCN(C(=O)c3cccc(OC)c3)CC2)cc1,"inconclusive: 37.9 µM [inhibitor, partial curve, poor fit]"
6,Cc1ccc(-n2ncc3c(N4CCN(C)CC4)ncnc32)cc1C,active: 4.26 µM
7,COc1ccccc1NC(=O)C1=C(C)NC(=O)NC1c1ccccc1[N+](=O)[O-] (centres undefined),"inconclusive: 30.1 µM [inhibitor, partial curve, poor fit]"
8,O=C(c1cccnc1)N1CCN(Cc2ccc3c(c2)OCO3)CC1,inactive
9,CC1CN(S(=O)(=O)c2cc(C(=O)NCCC3=CCCCC3)ccc2Cl)CC(C)O1 (centres undefined),"inconclusive: 23.9 µM [inhibitor, single point]"
10,O=C(CN1C(=O)NC2(CCCC2)C1=O)Nc1nc2ccccc2s1,"inconclusive: 37.9 µM [inhibitor, partial curve, poor fit]"
11,CCOc1cccc(NC(=O)/C(C#N)=C/c2cccnc2)c1,active: 16.9 µM
12,Cc1cccc(C)c1NC(=O)c1cnccn1,inactive
13,O=C(Nc1ccc(N2CCOCC2)c(Cl)c1)c1ccccc1Cl,active: 26.9 µM
14,COCCCNC(=O)/C=C1\Sc2ccccc2N(Cc2ccccc2F)C1=O,"inconclusive: 2.39 µM [inhibitor, full curve]"
15,COc1ccccc1C(=O)Nc1ccnn1C1CCN(Cc2cc(C)c(C)cc2C)CC1,inactive
16,O=C(NNc1ccc(O)cc1)c1ccc(Br)cc1,"inconclusive: 16.9 µM [inhibitor, partial curve]"
17,CC(=O)NC1C(=O)N(CCN2CCOCC2)c2ccc(Cl)cc21 (centres undefined),"inconclusive: 37.9 µM [inhibitor, single point]"
18,O=C(N/N=C/c1c(O)ccc2ccccc12)c1ccc(Br)o1,"inconclusive: 37.9 µM [inhibitor, partial curve, poor fit]"
19,COc1ccc(-n2ccnc(NCc3ccc(C)cc3)c2=O)cc1OC,inactive
20,COc1cccc(CNC(=O)Cn2cccc2C(=O)c2ccccc2C)c1,"inconclusive: 37.9 µM [inhibitor, single point]"
21,COc1ccccc1NS(=O)(=O)c1cccc(NC(=O)Nc2ccc(Cl)cc2)c1,"inconclusive: 23.9 µM [inhibitor, single point]"
22,C/C(=N\NC(=O)c1cccc(C)c1)c1cccc(NC(=O)c2ccco2)c1,active: 15.1 µM
23,Cc1ccc(-c2c(C#N)c(N)nc3c2CCCCC3)o1,inactive
24,COc1ccc(Nc2ncnc3ccccc23)c(OC)c1,"inconclusive: 26.9 µM [inhibitor, single point]"
